The results in this text go back to paper PMC11995724, “Antibiotic target discovery by integrated phenotypic and activity-based profiling of electrophilic fragments” (Cell chemical biology, 2025).

Among all 3,200 compounds or so, about 75 (2%) showed an effect of 50% or more. The list shows a part of the results.

This assay has as its system T1, S. aureus MSSA476.
T1 construct: MSSA476
Further details: species or system S. aureus MSSA476 (TSB) or V. cholerae SAD30 (LB); 384-well bacterial growth screen at 25 uM, OD600 relative to DMSO control. The conditions noted are these: relative growth, OD600, TSB; 25 µM; inhibitor.
Consider `C=CC(=O)N1CCC(C(=O)N2CCCC2C2OCCO2)CC1` (stereo not shown) [2-L12, 1-{4-[2-(1,3-dioxolan-2-yl)pyrrolidine-1-carbonyl]piperidin-1-yl}prop-2-en-1-one], for which the “% of control remaining” value is 100.609%.

With `N#CC(=Cc1cccs1)C(=O)NCc1ccco1` [9-L08, 2-cyano-N-[(furan-2-yl)methyl]-3-(thiophen-2-yl)prop-2-enamide], the “% of control remaining” value was 76.4045%.

Take `C=CC(=O)Nc1ccc(OC)cc1S(C)(=O)=O` [1-C04, N-(2-methanesulfonyl-4-methoxyphenyl)prop-2-enamide]: the “% of control remaining” value was 93.8901%.

In the case of `C=CC(=O)N1CCOCC1c1ncnn1Cc1ccccc1` (stereo not shown) [1-L12, 1-[3-(1-benzyl-1H-1,2,4-triazol-5-yl)morpholin-4-yl]prop-2-en-1-one], the “% of control remaining” value amounted to 117.451%.

For `O=C(CCl)N1c2ccccc2Sc2ccc(Cl)cc21` [4-N07, 2-chloro-1-(2-chloro-10H-phenothiazin-10-yl)ethan-1-one], the “% of control remaining” value is on record as 3.049%.

Consider `Cc1cccc(NC(=O)C(C#N)=Cc2cnc3ccc(C#N)cn23)c1` [9-O18, 2-cyano-3-{6-cyanoimidazo[1,2-a]pyridin-3-yl}-N-(3-methylphenyl)prop-2-enamide], for which the “% of control remaining” value came out at 102.472%.

As to `CCOC(=O)c1c2c(nn1C)CCN(C(=O)C(C)Cl)C2` (stereo not shown) [7-I07, ethyl 5-(2-chloropropanoyl)-2-methyl-2H,4H,5H,6H,7H-pyrazolo[4,3-c]pyridine-3-carboxylate], the “% of control remaining” value stood at 92.3077%.

In the case of `Cc1cc(C(C)(C)C)cc(C)c1NC(=O)CCl` [4-L19, N-(4-tert-butyl-2,6-dimethylphenyl)-2-chloroacetamide], the “% of control remaining” value stood at 128.823%.

Take `COc1ccc2c(c1)CCCN(C(=O)C(C)Cl)C2` (stereo not shown) [5-D17, 2-chloro-1-(7-methoxy-2,3,4,5-tetrahydro-1H-2-benzazepin-2-yl)propan-1-one]: the “% of control remaining” value was determined as 114.754%.

Turning to `C=CC(=O)N1CSCC1C(=O)N1CCOCC1` (stereo not shown) [2-N21, 1-[4-(morpholine-4-carbonyl)-1,3-thiazolidin-3-yl]prop-2-en-1-one], the “% of control remaining” value came out at 119.06%.

`C=CC(=O)Nc1cc(Cl)cc(C)c1OC` [1-E16, N-(5-chloro-2-methoxy-3-methylphenyl)prop-2-enamide]: the “% of control remaining” value is recorded as 104.44%.

In the case of `NS(=O)(=O)c1cccc(N2C(=O)C=CC2=O)c1` [10-I05, 3-(2,5-dioxo-2,5-dihydro-1H-pyrrol-1-yl)benzene-1-sulfonamide], the “% of control remaining” value was found to be 115%.

For `O=C1C=CC(=O)N1c1cc(C(F)(F)F)ccc1Cl` [10-G09, 1-[2-chloro-5-(trifluoromethyl)phenyl]-2,5-dihydro-1H-pyrrole-2,5-dione], the “% of control remaining” value worked out at 133.75%.

For the compound `CC(Cl)C(=O)N1Cc2ccccc2OC(C)(C)C1` (stereo not shown) [6-H19, 2-chloro-1-(2,2-dimethyl-2,3,4,5-tetrahydro-1,4-benzoxazepin-4-yl)propan-1-one], the “% of control remaining” value is reported as 123.951%.

Turning to `C#Cc1cccc(N(Cc2cc3n(n2)CCCO3)C(=O)CCl)c1` [5-O10, 2-chloro-N-(3-ethynylphenyl)-N-({5H,6H,7H-pyrazolo[3,2-b][1,3]oxazin-2-yl}methyl)acetamide], the “% of control remaining” value stood at 100.182%.

Consider `C=CC(=O)Nc1ccc(-n2ccccc2=O)cc1F` [3-J16, N-[2-fluoro-4-(2-oxo-1,2-dihydropyridin-1-yl)phenyl]prop-2-enamide], for which the “% of control remaining” value was found to be 109.36%.

For the compound `C=CC(=O)NC(C)c1nc(C2CCCCC2)no1` (stereo not shown) [1-N17, N-[1-(3-cyclohexyl-1,2,4-oxadiazol-5-yl)ethyl]prop-2-enamide], the “% of control remaining” value is 112.176%.

Consider `C=CC(=O)N1CCC(C(=O)NC2CCCc3cc(F)ccc32)CC1` (stereo not shown) [2-K18, N-(6-fluoro-1,2,3,4-tetrahydronaphthalen-1-yl)-1-(prop-2-enoyl)piperidine-4-carboxamide], for which the “% of control remaining” value came to 104.787%.

As for `CC(Cl)C(=O)N1CCCN(C(=O)c2cc(Cl)cn2C)CC1` (stereo not shown) [7-N07, 2-chloro-1-[4-(4-chloro-1-methyl-1H-pyrrole-2-carbonyl)-1,4-diazepan-1-yl]propan-1-one], the “% of control remaining” value is given as 91.6797%.

Regarding `CC(Cl)C(=O)NC(C)c1ccc(Cl)cc1Cl` (stereo not shown) [5-M15, 2-chloro-N-[1-(2,4-dichlorophenyl)ethyl]propanamide], the “% of control remaining” value was determined as 98.3607%.

On to `C=CC(=O)N1CCC(c2nc(C)no2)CC1` [3-E05, 1-[4-(3-methyl-1,2,4-oxadiazol-5-yl)piperidin-1-yl]prop-2-en-1-one], for which the “% of control remaining” value turned out to be 88.1149%.

Regarding `COc1ccc(CCN2C(=O)C=CC2=O)cc1OC` [10-H07, 1-[2-(3,4-dimethoxyphenyl)ethyl]-2,5-dihydro-1H-pyrrole-2,5-dione], the “% of control remaining” value came out at 119.687%.

In the case of `C=CC(=O)NCC1OCCc2sc(F)cc21` (stereo not shown) [2-P09, N-({2-fluoro-4H,6H,7H-thieno[3,2-c]pyran-4-yl}methyl)prop-2-enamide], the “% of control remaining” value worked out at 92.2541%.

`N#CC(=Cc1ccco1)C(=O)Nc1ccc2nc(S)oc2c1` [9-E16, 2-cyano-3-(furan-2-yl)-N-(2-sulfanyl-1,3-benzoxazol-6-yl)prop-2-enamide]: the “% of control remaining” value amounted to 94.9813%.

Turning to `CC(Cl)C(=O)N(C)Cc1nccn1Cc1ccccc1` (stereo not shown) [6-J09, N-[(1-benzyl-1H-imidazol-2-yl)methyl]-2-chloro-N-methylpropanamide], the “% of control remaining” value came to 89.4634%.

As to `C=CC(=O)NC[C@@H]1C=C[C@H]2C[C@@H]1CO2` (racemic) [1-I03, rac-N-{[(1R,2S,5S)-6-oxabicyclo[3.2.1]oct-3-en-2-yl]methyl}prop-2-enamide], the “% of control remaining” value is 103.385%.

On to `C=CC(=O)N(CC)CC(=O)N1CCCC(N2CCCS2(=O)=O)C1` (stereo not shown) [3-I08, N-{2-[3-(1,1-dioxo-1lambda6,2-thiazolidin-2-yl)piperidin-1-yl]-2-oxoethyl}-N-ethylprop-2-enamide], for which the “% of control remaining” value amounted to 102.046%.

On to `Cc1cc(C=C2CCN(C(=O)C(C)Cl)CC2)no1` (stereo not shown) [6-N03, 2-chloro-1-{4-[(5-methyl-1,2-oxazol-3-yl)methylidene]piperidin-1-yl}propan-1-one], for which the “% of control remaining” value is recorded as 96.2927%.

As for `CS(=O)(=O)c1ccc(C(=O)CCl)cc1` [10-I13, 2-chloro-1-(4-methanesulfonylphenyl)ethan-1-one], the “% of control remaining” value is 83.125%.

As to `C=CC(=O)N1CCC(C(=O)N2CCCC(O)C2)(c2ccccc2)CC1` (stereo not shown) [2-P06, 1-[4-(3-hydroxypiperidine-1-carbonyl)-4-phenylpiperidin-1-yl]prop-2-en-1-one], the “% of control remaining” value is reported as 83.2028%.

Regarding `CC(Cl)C(=O)NCc1nc(C2CC2)n[nH]1` (stereo not shown) [7-L19, 2-chloro-N-[(3-cyclopropyl-1H-1,2,4-triazol-5-yl)methyl]propanamide], the “% of control remaining” value came to 97.9592%.

As to `O=C(CCl)NCCOc1ccc2ccccc2c1` [6-A14, 2-chloro-N-[2-(naphthalen-2-yloxy)ethyl]acetamide], the “% of control remaining” value came out at 84.6829%.

In the case of `Cc1cc(=O)[nH]c(-c2cccc(NC(=O)C(C#N)=Cc3ccco3)c2)n1` [8-B10, 2-cyano-3-(furan-2-yl)-N-[3-(4-methyl-6-oxo-1,6-dihydropyrimidin-2-yl)phenyl]prop-2-enamide], the “% of control remaining” value was determined as 105.892%.

Turning to `C=CC(=O)N1CCOCC1c1ccnn1C` (stereo not shown) [3-I19, 1-[3-(1-methyl-1H-pyrazol-5-yl)morpholin-4-yl]prop-2-en-1-one], the “% of control remaining” value worked out at 109.36%.

Regarding `CC(C)NC(=O)C(C#N)=Cc1ccc(C(F)(F)F)cc1` [8-L13, 2-cyano-N-(propan-2-yl)-3-[4-(trifluoromethyl)phenyl]prop-2-enamide], the “% of control remaining” value came to 90.6224%.

As to `COC(=O)c1ccc2[nH]cc(C(=O)CCl)c2c1` [10-D05, methyl 3-(2-chloroacetyl)-1H-indole-5-carboxylate], the “% of control remaining” value is 113.75%.

Consider `CC(C)NC(=O)C(C#N)=Cc1cccc(C(F)(F)F)c1` [9-J13, 2-cyano-N-(propan-2-yl)-3-[3-(trifluoromethyl)phenyl]prop-2-enamide], for which the “% of control remaining” value was 99.176%.

For the compound `C=CC(=O)N1CCC(C(=O)N2CCC[C@H]2c2ncn[nH]2)CC1` [2-D12, 1-{4-[(2S)-2-(1H-1,2,4-triazol-5-yl)pyrrolidine-1-carbonyl]piperidin-1-yl}prop-2-en-1-one], the “% of control remaining” value amounted to 119.06%.

Regarding `Cc1cc(C=C(C#N)C(=O)NCc2ccccc2)c(C)n1C1CC1` [8-G14, N-benzyl-2-cyano-3-(1-cyclopropyl-2,5-dimethyl-1H-pyrrol-3-yl)prop-2-enamide], the “% of control remaining” value is 99.5851%.

On to `N#CC(=Cc1cccc2c1OCCCO2)C(=O)NCc1ccccc1` [9-G05, N-benzyl-2-cyano-3-(3,4-dihydro-2H-1,5-benzodioxepin-6-yl)prop-2-enamide], for which the “% of control remaining” value was 76.7041%.

Take `C=CC(=O)Nc1ccc(C(=O)Nc2ccc(N3CCOCC3)nc2)cc1` [1-K15, N-[6-(morpholin-4-yl)pyridin-3-yl]-4-(prop-2-enamido)benzamide]: the “% of control remaining” value is recorded as 124.132%.

For the compound `CC(Cl)C(=O)N1Cc2ccccc2C(n2cccn2)C1` (stereo not shown) [6-F20, 2-chloro-1-[4-(1H-pyrazol-1-yl)-1,2,3,4-tetrahydroisoquinolin-2-yl]propan-1-one], the “% of control remaining” value is recorded as 95.9512%.

On to `CC(Cl)C(=O)Nc1cccc2ncccc12` (stereo not shown) [4-M10, 2-chloro-N-(quinolin-5-yl)propanamide], for which the “% of control remaining” value amounted to 120.438%.
